In all, about 48,000 compounds went through this assay and about 120 (0.25%) were called active. Inconclusive results (about 4%) are left out. The call rests on the fitted dose curve; in most records, active means well fitted activation curve with a large enough effect; inconclusive means small, poorly fitted or top-dose-only effect, or another doubt; inactive means no such curve, though single readings can be large or run the other way. Some of the results follow.

This experiment can be described thus: Primary qHTS for Identification of Small Molecule Activators of Huntingtin-Antisense Promoter Activity. Further: nearly all actives have a fitted effect of over 55% in size. As to conditions: HEK293 HTT-AS promoter firefly luciferase reporter, 24 h; series mostly up to 57.5 µM; activity change, positive = activation: at the top concentration. A digest of the protocol:
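HEK293 luciferase promoter-reporter cells (2,500/well) plated 24 h, then compounds added at up to 57.5 uM final for 24 h at 37 °C. Firefly luminescence by Dual-Glo, normalized to vehicle (0%) and zero RLU (-100%).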
On to `CCOC(=O)c1c(NC(=O)/C=C/c2ccc(OCC)cc2)sc2c1CCCC2`, for which the “activity change, positive = activation” value is inactive: 3.43%.
Under `O=C(NCc1ccc2c(c1)CCN2C(=O)c1ccc(Cl)cc1)c1ccco1` stands inactive: -3.13%; under `O=C(Cn1c(=O)n(-c2ccccc2)c(=O)c2c3c(sc21)CCCC3)Nc1ccccc1`, inactive: -22.5%; under `CCOC(=O)c1noc2nc(C)n(CC(=O)Nc3ccc(OC)c(Cl)c3)c(=O)c12`, inactive: 0.841%.
As to `O=C(O)CSc1nnc(-c2ccc(O)cc2)o1`, the “activity change, positive = activation” value was inactive: -12.5%.
With `Cc1cc(N2CCC(C(=O)Nc3ccc(Cl)cc3)CC2)n2nc(C)c(-c3ccc(Cl)cc3)c2n1`, the “activity change, positive = activation” value was inactive: -4.6%.
With `Cc1ccc(CC(=O)Nc2c(C(=O)N3CCN(c4ccccc4)CC3)oc3ccccc23)cc1`, the “activity change, positive = activation” value is inactive: -16.7%.
Turning to `Nc1ccc(S(=O)(=O)Nc2nccs2)cc1`, the “activity change, positive = activation” value is inactive: -3.67%.
Under `O=C(CCC1N=C2c3ccccc3N=C(SCc3ccccc3Cl)N2C1=O)N1CCN(c2ccccc2)CC1` (centres undefined) stands inactive: -21.3%; under `COC(=O)c1ccc(NC(=O)c2cccc3c2C(=O)N(C2CCCCC2)C3)cc1`, inactive: 6.61%; under `COC(=O)CC1Oc2ccc(C)cc2-n2cc(-c3ccc(F)cc3)nc21` (centres undefined), inactive: -15.8%.
Take `O=C(O)c1cccc(-c2noc(-c3ccccc3F)n2)c1`: the activity change, positive = activation result is “inactive”.
In the case of `COc1ccc(N2CCN(C(=O)c3cc(NS(=O)(=O)c4ccc(F)cc4)ccn3)CC2)cc1`, the “activity change, positive = activation” value is inactive: -19.3%.
Under `CCOc1ccc(CCNC(=O)CCN2N=C(c3ccc(OC)cc3)CCC2=O)cc1OCC` stands inactive: -23.2%; under `Cc1ccc(C)c(NC(=O)CSc2ncc3c(n2)-c2cc(Cl)ccc2N(Cc2ccccc2F)S3(=O)=O)c1`, inactive: -3.68%.
On to `Cc1ccc(C)c(N2CCN(C(=O)CCn3c(=O)[nH]c4ccccc4c3=O)CC2)c1`, for which the “activity change, positive = activation” value is inactive: -25.7%.
For the compound `CCCSCCCNC(=O)c1cc2n(n1)CCCN(Cc1ccc(C)cc1)C2=O`, the “activity change, positive = activation” value was inactive: -27.3%.
Regarding `COc1ccc(Cn2ccc3nc(C)c(C(=O)NCc4ccc(C)cc4)cc3c2=O)cc1`, the “activity change, positive = activation” value is inactive: -19.3%.
Take `CC(CNC1CCCCC1)OC(=O)c1ccccc1` (centres undefined): the “activity change, positive = activation” value is inactive: -19.7%.
`CC1(C)CC(=O)c2cc(-c3nc(-c4ccc(Cl)cc4)cs3)c(=O)n(-c3ccc(F)cc3)c2C1`: the “activity change, positive = activation” value was inactive: -19.6%.
Regarding `Cc1cc(Cl)ccc1NC(=O)CCn1nc(C)c2c(C)n(-c3ccccc3)nc2c1=O`, the “activity change, positive = activation” value is inactive: 10.9%.
`Cc1cccc(OCCSc2nc3ccc(NC(=O)COc4ccccc4F)cc3s2)c1`: the “activity change, positive = activation” value is inactive: -20%.
On to `Cc1cccc(C)c1OCCn1c(C2CC(=O)N(Cc3ccc(F)cc3)C2)nc2ccccc21` (centres undefined), for which the “activity change, positive = activation” value is inactive: -42.9%.
As to `O=C(CCS(=O)(=O)c1cccc2nonc12)Nc1cccc(F)c1`, the “activity change, positive = activation” value was inactive: 20.7%.
Regarding `CC(C)NC(=O)CSc1nc2ccccc2c(=O)n1Cc1ccc(C(=O)NC(C)C)cc1`, the “activity change, positive = activation” value was inactive: -10.9%.
As to `O=C(CSc1nc(=O)[nH]c2c1CCC2)NCc1ccc(Cl)cc1`, the “activity change, positive = activation” value was inactive: -6.59%.
Regarding `Cc1noc2ncnc(N3CCN(c4ccccc4F)CC3)c12`, the “activity change, positive = activation” value was inactive: -26.2%.
For the compound `COc1ccc(CN(Cc2ccco2)c2cnc(S(C)(=O)=O)nc2C(=O)Nc2ccc(C)c(C)c2)cc1`, the “activity change, positive = activation” value is inactive: -8.85%.
In the case of `COC(=O)c1ccc(C(=O)Nc2ccc(-c3nc4cc(NC(=O)c5ccc(C(=O)OC)cc5)ccc4o3)cc2)cc1`, the “activity change, positive = activation” value was inactive: -10.7%.
In the case of `Cc1cccc(CSc2nc3cccnc3n2Cc2ccc(C(=O)NCc3ccco3)cc2)c1`, the “activity change, positive = activation” value is inactive: -17.3%.
Regarding `Cc1ccc(Cl)cc1NC(=O)Cn1cc2c(n1)CCCCC2`, the “activity change, positive = activation” value is inactive: -2.13%.
`CCSc1ncc(Cl)c(C(=O)Nc2ccc(S(=O)(=O)Nc3nccc(C)n3)cc2)n1`: the “activity change, positive = activation” value is inactive: -14.8%.
Regarding `C=CCC(CC=C)(CNC(=O)C(=O)Nc1ccc(C(=O)OCC)cc1)c1ccccc1`, the “activity change, positive = activation” value was inactive: -17.2%.
On to `COC(=O)c1ccccc1NC(=O)c1cc2c(-c3ccc(OC)c(OC)c3)nn(C)c2s1`, for which the “activity change, positive = activation” value is inactive: 17.4%.
Under `Cc1ccc(NC(=O)C(Cc2ccccc2)n2cccc2)cc1C` (centres undefined) stands inactive: -19.1%; under `Cc1ccc(-c2nc3ccccn3c2Nc2ccc3c(c2)OCO3)o1`, inactive: 12.4%; under `COc1ccc(-c2nn(-c3cccc([N+](=O)[O-])c3)c3c2cnc2cc4c(cc23)OCO4)cc1`, inactive: -6.54%.
Take `CC(C)c1ccc(Nc2nc3c(S(=O)(=O)c4ccc(Br)cc4)nnn3c3ccsc23)cc1`: the “activity change, positive = activation” value was inactive: -24.2%.
With `CCCN(C(=O)c1cc2c(s1)-c1c(C)cccc1OC2)c1ccc(OCC)cc1`, the “activity change, positive = activation” value is inactive: -10.1%.
Under `CCSc1nnnn1-c1cccc(C(=O)O)c1` stands inactive: 18.5%; under `CCOC(=O)c1cc(-c2ccc(C)cc2)n(CC(=O)NC2CCCCCC2)c1C`, inactive: -3.95%; under `COc1cccc(NS(=O)(=O)c2ccc3c(c2)CCCN3C(=O)C2CCC2)c1`, inactive: -17%.
Under `Cc1c(NC(=O)Nc2ccc(C#N)cc2)c(=O)n(-c2ccccc2)n1C` stands inactive: -3.66%; under `Cc1cccc(-c2c3c(=O)n(C)c(=O)n(C)c3c3cnc4ccccc4n23)c1`, inactive: 4.95% [at 11.5 µM, percent change from vehicle, -100% = no light]; under `COc1ccc(C2c3[nH]c4ccc(OC)cc4c3CCN2C(=O)Nc2ccccc2)cc1` (centres undefined), inactive: -45.4%.
For the compound `CCC(=O)Nc1sc2c(c1C(=O)Nc1cccc(C)c1)CCCC2`, the “activity change, positive = activation” value was inactive: -20.5%.
Under `Cc1ccc(NC(=O)Cn2cc(S(=O)(=O)c3ccccc3)c(=O)c3cc4c(cc32)OCO4)cc1` stands inactive: -27.2%; under `COc1ccccc1Nc1nn2c(=O)c3ccc(C(=O)NC(C)c4ccccc4)cc3nc2s1` (centres undefined), inactive: -21.2%.
Turning to `Cc1cccc(C(=O)Nc2ccc(OCc3cc(=O)n4c5c(sc4n3)CCCC5)cc2)c1`, the “activity change, positive = activation” value is inactive: -8.8%.
As for `Cc1ccc(CNC(=O)CSc2nc3n[nH]c(C)c3c(=N)n2-c2cccc(C)c2)cc1`, the “activity change, positive = activation” value was inactive: -32.9%.
Under `CCOc1ccc(NC(=O)Cn2cc(S(=O)(=O)N3CCN(c4ccccc4F)CC3)c3ccccc3c2=O)cc1` stands inactive: -10.7%; under `O=C(NCCc1csc2nc(-c3cccc(F)c3)nn12)c1ccc(Br)o1`, inactive: -11.5%; under `COc1ccc(N(CC(=O)N2CCN(c3ccc(F)cc3)CC2)S(=O)(=O)c2c(C)n[nH]c2C)cc1`, inactive: -23.3%.
Under `COc1ccc(-c2noc(-c3ccc(N4CCC(C)CC4)c([N+](=O)[O-])c3)n2)cc1OC` stands inactive: -12.4%.
With `CC(C)(C)c1ccc(C(=O)NC(Cc2c[nH]c3ccccc23)C(=O)OCC(=O)c2ccc(Cl)cc2)cc1` (centres undefined), the “activity change, positive = activation” value was inactive: -4.45%.
Under `CCCCNc1nc2c(c(=O)n(Cc3ccc(Cl)c(Cl)c3)c(=O)n2C)n1C` stands inactive: -26.1%.
As to `Cc1ccc(CNC(=O)c2cccc(-n3cnc4cccnc43)c2)cc1`, the “activity change, positive = activation” value was inactive: -6.48%.
With `CCc1ccc(NC(=O)CCNS(=O)(=O)c2ccc3c(c2)CCCC(=O)N3)cc1`, the “activity change, positive = activation” value is inactive: -7.69%.
Turning to `COc1cccc(C(=O)Nc2c3c(nn2-c2ccc(Cl)cc2)CS(=O)(=O)C3)c1`, the “activity change, positive = activation” value is inactive: -13.1%.
